Laboratory results reported in the supplement of paper PMC8728848.
The list shows a part of the results.

How the values were obtained:
Assay in all cases: glycan array binding signal (z-score within array); higher = stronger binding
Conditions in all cases: glycan notation: IUPAC condensed, linker removed
[1] = target: Gal(b1-2)Gal
How it was run: (§1)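 The Consortium for Functional Glycomics database supplied 3228 glycan arrays, of which those lacking an available protein sequence were dropped. The binding signal, a within-array Z-score, was averaged across arrays of the same protein sequence and across linkers. Negative scores can be read as non-binding.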

[2] = target: Gal(b1-3)Gal
How it was run: as §1

[3] = target: Gal(b1-3)Gal(b1-4)GlcNAc
How it was run: as §1

[4] = target: Gal(b1-3)GalNAc
How it was run: as §1

[5] = target: Gal(b1-3)GalNAc(a1-3)[Fuc(a1-2)]Gal(b1-4)Glc
How it was run: as §1

[6] = target: Gal(b1-3)GalNAc(a1-3)[Fuc(a1-2)]Gal(b1-4)GlcNAc
How it was run: as §1

[7] = target: Gal(b1-3)GalNAc(b1-3)Gal
How it was run: as §1

[8] = target: Gal(b1-3)GalNAc(b1-3)Gal(a1-4)Gal(b1-4)Glc
How it was run: as §1

[9] = target: Gal(b1-3)GalNAc(b1-4)Gal(b1-4)Glc
How it was run: as §1

[10] = target: Gal(b1-3)GalNAc(b1-4)[Neu5Ac(a2-3)]Gal(b1-4)Glc
How it was run: as §1

[11] = target: Gal(b1-3)GlcNAc
How it was run: as §1

[12] = target: Gal(b1-3)GlcNAc(a1-3)Gal(b1-4)GlcNAc
How it was run: as §1

[13] = target: Gal(b1-3)GlcNAc(a1-6)Gal(b1-4)GlcNAc
How it was run: as §1

[14] = target: Gal(b1-3)GlcNAc(b1-2)Man
How it was run: as §1

[15] = target: Gal(b1-3)GlcNAc(b1-2)Man(a1-3)[Gal(b1-3)GlcNAc(b1-2)Man(a1-6)]Man(b1-4)GlcNAc(b1-4)GlcNAc
How it was run: as §1

[16] = target: Gal(b1-3)GlcNAc(b1-2)Man(a1-3)[Gal(b1-3)GlcNAc(b1-2)Man(a1-6)]Man(b1-4)GlcNAc(b1-4)[Fuc(a1-6)]GlcNAc
How it was run: as §1

[17] = target: Gal(b1-3)GlcNAc(b1-2)Man(a1-3)[GlcNAc(b1-4)][Gal(b1-3)GlcNAc(b1-2)Man(a1-6)]Man(b1-4)GlcNAc(b1-4)GlcNAc
How it was run: as §1

[18] = target: Gal(b1-3)GlcNAc(b1-2)[Gal(b1-3)GlcNAc(b1-6)]Man(a1-6)[Gal(b1-3)GlcNAc(b1-2)Man(a1-3)]Man(b1-4)GlcNAc(b1-4)GlcNAc
How it was run: as §1

[19] = target: Gal(b1-3)GlcNAc(b1-3)Gal(b1-3)GlcNAc
How it was run: as §1

[20] = target: Gal(b1-3)GlcNAc(b1-3)Gal(b1-4)Glc
How it was run: as §1

[21] = target: Gal(b1-3)GlcNAc(b1-3)Gal(b1-4)GlcNAc
How it was run: as §1

[22] = target: Gal(b1-3)GlcNAc(b1-3)Gal(b1-4)GlcNAc(b1-2)Man(a1-3)[Gal(b1-3)GlcNAc(b1-3)Gal(b1-4)GlcNAc(b1-2)Man(a1-6)]Man(b1-4)GlcNAc(b1-4)GlcNAc
How it was run: as §1

[23] = target: Gal(b1-3)GlcNAc(b1-3)Gal(b1-4)GlcNAc(b1-2)[Gal(b1-3)GlcNAc(b1-3)Gal(b1-4)GlcNAc(b1-6)]Man(a1-6)[Gal(b1-3)GlcNAc(b1-3)Gal(b1-4)GlcNAc(b1-2)Man(a1-3)]Man(b1-4)GlcNAc(b1-4)[Fuc(a1-6)]GlcNAc
How it was run: as §1

[24] = target: Gal(b1-3)GlcNAc(b1-3)Gal(b1-4)GlcNAc(b1-3)Gal(b1-4)GlcNAc(b1-2)[Gal(b1-3)GlcNAc(b1-3)Gal(b1-4)GlcNAc(b1-3)Gal(b1-4)GlcNAc(b1-6)]Man(a1-6)[Gal(b1-3)GlcNAc(b1-3)Gal(b1-4)GlcNAc(b1-3)Gal(b1-4)GlcNAc(b1-2)Man(a1-3)]Man(b1-4)GlcNAc(b1-4)[Fuc(a1-6)]GlcNAc
How it was run: as §1

[25] = target: Gal(b1-3)GlcNAc(b1-3)Gal(b1-4)GlcNAc(b1-6)[Gal(b1-3)GlcNAc(b1-3)]Gal(b1-4)Glc
How it was run: as §1

[26] = target: Gal(b1-3)GlcNAc(b1-3)Gal(b1-4)[Fuc(a1-3)]GlcNAc
How it was run: as §1

[27] = target: Gal(b1-3)GlcNAc(b1-3)Gal(b1-4)[Fuc(a1-3)]GlcNAc(b1-6)[Gal(b1-3)GlcNAc(b1-3)]Gal(b1-4)Glc
How it was run: as §1

[28] = target: Gal(b1-3)GlcNAc(b1-3)GalNAc
How it was run: as §1

[29] = target: Gal(b1-3)GlcNAc(b1-6)Gal(b1-4)GlcNAc
How it was run: as §1

[30] = target: Gal(b1-3)GlcNAc(b1-6)GalNAc
How it was run: as §1

[31] = target: Gal(b1-3)GlcNAc(b1-6)[Gal(b1-3)]GalNAc
How it was run: as §1

[32] = target: Gal(b1-3)GlcNAc6S
How it was run: as §1

[33] = target: Gal(b1-3)[Fuc(a1-4)]GlcNAc
How it was run: as §1

[34] = target: Gal(b1-3)[Fuc(a1-4)]GlcNAc(b1-2)Man
How it was run: as §1

[35] = target: Gal(b1-3)[Fuc(a1-4)]GlcNAc(b1-2)Man(a1-3)[Gal(b1-3)[Fuc(a1-4)]GlcNAc(b1-2)Man(a1-6)]Man(b1-4)GlcNAc(b1-4)[Fuc(a1-6)]GlcNAc
How it was run: as §1

[36] = target: Gal(b1-3)[Fuc(a1-4)]GlcNAc(b1-3)Gal(b1-3)[Fuc(a1-4)]GlcNAc
How it was run: as §1

[37] = target: Gal(b1-3)[Fuc(a1-4)]GlcNAc(b1-3)Gal(b1-4)[Fuc(a1-3)]GlcNAc
How it was run: as §1

[38] = target: Gal(b1-3)[Fuc(a1-4)]GlcNAc(b1-6)GalNAc
How it was run: as §1

[39] = target: Gal(b1-3)[GlcNAc(b1-6)]GalNAc
How it was run: as §1

[40] = target: Gal(b1-3)[Neu5Ac(a2-6)]GalNAc
How it was run: as §1

[41] = target: Gal(b1-3)[Neu5Ac(a2-6)]GlcNAc(b1-4)Gal(b1-4)Glc
How it was run: as §1

[42] = target: Gal(b1-3)[Neu5Ac(b2-6)]GalNAc
How it was run: as §1

[43] = target: Gal(b1-4)Gal
How it was run: as §1

[44] = target: Gal(b1-4)GalNAc(a1-3)[Fuc(a1-2)]Gal(b1-4)GlcNAc
How it was run: as §1

[45] = target: Gal(b1-4)GalNAc(b1-3)[Fuc(a1-2)]Gal(b1-4)GlcNAc
How it was run: as §1

B1: Thrombomodulin (Mus musculus) (protein)
chain: ALAKLQPTGSQCVEHECFALFQGPATFLDASQACQRLQGHLMTVRSSVAADVISLLLSQSSMDLGPWIGLQLPQGCDDPVHLGPLRGFQWVTGDNHTSYSRWARPNDQTAPLCGPLCVTVSTATEAAPGEPAWEEKPCETETQGFLCEFYFTASC
Question: Which “glycan array binding signal (z-score)” value [1] does the source give for B1 here?
Answer: Its value is -0.301.

Question: And the “glycan array binding signal (z-score)” value [2]?
Answer: The value was 0.08.

Question: And the “glycan array binding signal (z-score)” value [3]?
Answer: The value was -0.219.

Question: What about the “glycan array binding signal (z-score)” value [4] of the same binder?
Answer: Its value is -0.048.

Question: What about the “glycan array binding signal (z-score)” value [5] of the same binder?
Answer: Its value is -0.25.

Question: What about the “glycan array binding signal (z-score)” value [6] of the same binder?
Answer: Its value is 0.025.

Question: What about the “glycan array binding signal (z-score)” value [7] of the same binder?
Answer: The value was 0.257.

Question: What about the “glycan array binding signal (z-score)” value [8] of the same binder?
Answer: Its value is -0.277.

Question: And the “glycan array binding signal (z-score)” value [9]?
Answer: Its value is 0.289.

Question: And the “glycan array binding signal (z-score)” value [10]?
Answer: The value was 0.315.

Question: What about the “glycan array binding signal (z-score)” value [11] of the same binder?
Answer: The value was 0.002.

Question: And the “glycan array binding signal (z-score)” value [12]?
Answer: The value was -0.11.

Question: What about the “glycan array binding signal (z-score)” value [13] of the same binder?
Answer: Its value is -0.192.

Question: What about the “glycan array binding signal (z-score)” value [14] of the same binder?
Answer: The value was 0.457.

Question: What about the “glycan array binding signal (z-score)” value [15] of the same binder?
Answer: The value was -0.121.

Question: What about the “glycan array binding signal (z-score)” value [16] of the same binder?
Answer: Its value is -0.294.

Question: And the “glycan array binding signal (z-score)” value [17]?
Answer: The value was -0.424.

Question: What about the “glycan array binding signal (z-score)” value [18] of the same binder?
Answer: The value was 0.037.

Question: And the “glycan array binding signal (z-score)” value [19]?
Answer: The value was 0.083.

Question: And the “glycan array binding signal (z-score)” value [20]?
Answer: Its value is 0.106.

Question: And the “glycan array binding signal (z-score)” value [21]?
Answer: Its value is -0.283.

Question: And the “glycan array binding signal (z-score)” value [22]?
Answer: Its value is -0.022.

Question: What about the “glycan array binding signal (z-score)” value [23] of the same binder?
Answer: Its value is -0.125.

Question: What about the “glycan array binding signal (z-score)” value [24] of the same binder?
Answer: The value was -0.27.

Question: What about the “glycan array binding signal (z-score)” value [25] of the same binder?
Answer: Its value is 0.148.

Question: What about the “glycan array binding signal (z-score)” value [26] of the same binder?
Answer: The value was -0.198.

Question: And the “glycan array binding signal (z-score)” value [27]?
Answer: The value was -0.066.

Question: What about the “glycan array binding signal (z-score)” value [28] of the same binder?
Answer: Its value is -0.491.

Question: What about the “glycan array binding signal (z-score)” value [29] of the same binder?
Answer: Its value is -0.192.

Question: And the “glycan array binding signal (z-score)” value [30]?
Answer: Its value is -0.186.

Question: What about the “glycan array binding signal (z-score)” value [31] of the same binder?
Answer: Its value is -0.267.

Question: What about the “glycan array binding signal (z-score)” value [32] of the same binder?
Answer: The value was -0.075.

Question: What about the “glycan array binding signal (z-score)” value [33] of the same binder?
Answer: Its value is -0.229.

Question: What about the “glycan array binding signal (z-score)” value [34] of the same binder?
Answer: Its value is 0.418.

Question: And the “glycan array binding signal (z-score)” value [35]?
Answer: The value was 0.595.

Question: What about the “glycan array binding signal (z-score)” value [36] of the same binder?
Answer: Its value is -0.012.

Question: What about the “glycan array binding signal (z-score)” value [37] of the same binder?
Answer: Its value is 0.029.

Question: And the “glycan array binding signal (z-score)” value [38]?
Answer: The value was -0.221.

Question: And the “glycan array binding signal (z-score)” value [39]?
Answer: Its value is -0.047.

Question: What about the “glycan array binding signal (z-score)” value [40] of the same binder?
Answer: The value was -0.193.

Question: What about the “glycan array binding signal (z-score)” value [41] of the same binder?
Answer: Its value is -0.124.

Question: What about the “glycan array binding signal (z-score)” value [42] of the same binder?
Answer: Its value is 0.148.

Question: What about the “glycan array binding signal (z-score)” value [43] of the same binder?
Answer: The value was -0.347.

Question: What about the “glycan array binding signal (z-score)” value [44] of the same binder?
Answer: Its value is -0.417.

Question: And the “glycan array binding signal (z-score)” value [45]?
Answer: Its value is -0.214.
